{
  "source": "PubChem BioAssay AID624296",
  "about": "(National Center for Advancing Translational Sciences (NCATS), 2012)",
  "note": "Out of some 350,000 compounds screened, about 9,900 (2.8%) were called active. This list was built around the results that the source calls inconclusive (neither active nor inactive); the mix of calls is not that of the screen. Calls follow the shape of the dose curve; as a rule, active = well fitted activation curve with a large enough effect; inconclusive = small, poorly fitted or top-dose-only effect; inactive = no such curve, though single readings can be large or run the other way. Potencies of inconclusive entries are left out as doubtful fits. Potency is read from the fitted curve at half-maximal effect; tags tell the direction and shape of the fitted curve.",
  "data": [
    {"test": "A quantitative high throughput screen for small molecules that induce DNA re-replication in MCF 10a normal breast cells; also: nearly all actives have a fitted effect of over 50% in size; as to activity, positive = re-replication: % of control where 0% means no effect.", "conditions": "MCF 10A DNA re-replication, Hoechst nuclear intensity, 48 h; activity, positive = re-replication: at 46.1 µM (top of the series)", "values": [
      {"compound": "CC(=O)NS(=O)(=O)c1ccc(NC(=O)c2cc(-c3cccs3)nc3ccccc23)cc1", "activity, positive = re-replication": "inactive: 8.96%"},
      {"compound": "CN1CCN(CCNC(=O)c2cc3c(=O)n(C)c4ccccc4c3n2C)CC1", "Potency": "inconclusive [activator, partial curve, poor fit]"},
      {"compound": "O=C(CSc1nnc(-c2ccncc2)n1Cc1ccccc1)NC1CCCc2ccccc21", "note": "(stereo unspecified)", "Potency": "inconclusive [activator, single point]"},
      {"compound": "COC(=O)Cn1c(C)nc([N+](=O)[O-])c1Br", "activity, positive = re-replication": "inactive: 0.0054%"},
      {"compound": "COc1cc(OC)c2c(c1)S(=O)(=O)C(c1ccccc1)=C2N", "Potency": "inconclusive [activator, single point]"},
      {"compound": "Cc1cc(C)n(-c2ccc(Cl)c(Cl)c2)n1", "activity, positive = re-replication": "inactive: 1.17%"},
      {"compound": "CC(C)c1ccc(/C=C(\\NC(=O)c2ccccc2)C(=O)NCCCn2ccnc2)cc1", "activity, positive = re-replication": "inactive: -3.92%"},
      {"compound": "CN(NC(=O)c1ccccc1)c1nc2ccccc2nc1C(F)(F)F", "Potency": "inconclusive [activator, full curve]"},
      {"compound": "CCCn1c(CCNc2nc(-c3cccc(Br)c3)cs2)nc2ccccc21", "activity, positive = re-replication": "inactive: -4.85%"},
      {"compound": "O=c1c2ccccc2nc(SCc2ccc([N+](=O)[O-])cc2)n1CCCO", "activity, positive = re-replication": "inactive: 15.9%"},
      {"compound": "OCC1OC(n2cnc3c(=S)nc[nH]c32)C(O)C1O", "note": "(stereo unspecified)", "Potency": "inconclusive [activator, full curve]"},
      {"compound": "FC(F)(F)c1cc(-c2ccco2)nc(NCc2ccc(Cl)cc2)n1", "Potency": "active: 16.4 µM"},
      {"compound": "Cc1cccc(C)c1NC(=O)COC(=O)c1ccccc1O", "Potency": "inconclusive [activator, full curve, poor fit]"},
      {"compound": "COc1ccc(NC2CCCN(C(=O)Cn3ccc(C)n3)C2)cc1OC", "note": "(stereo unspecified)", "activity, positive = re-replication": "inactive: 0.167%"},
      {"compound": "Cc1ccc(NCCC(=O)c2cccc([N+](=O)[O-])c2)c(C)c1", "Potency": "inconclusive [activator, full curve, poor fit]"},
      {"compound": "O=C(O)c1c2c(nc3ccccc13)/C(=C/c1cccc([N+](=O)[O-])c1)CCC2", "Potency": "inconclusive [activator, single point]"},
      {"compound": "CCc1ccc2[nH]c(=O)c(CN(CCN3CCOCC3)C(=O)Nc3ccccc3F)cc2c1", "Potency": "inconclusive [activator, partial curve, poor fit]"},
      {"compound": "O=C(c1ccc(-n2cccc2)cc1)N1CCCCC1", "activity, positive = re-replication": "inactive: 1.16%"},
      {"compound": "Cc1cc(C)c[n+](CC(=O)c2ccc(-c3ccccc3)cc2)c1", "Potency": "inconclusive [activator, partial curve, poor fit]"},
      {"compound": "O=C(Nc1ccc(OC(F)(F)F)cc1)c1[nH]ncc1[N+](=O)[O-]", "Potency": "inconclusive [activator, partial curve, poor fit]"},
      {"compound": "CCC(=O)C1CCCN(C(=O)CCc2nnc(C3(c4ccc(Cl)cc4)CCC3)o2)C1", "note": "(stereo unspecified)", "activity, positive = re-replication": "inactive: 19.8%"},
      {"compound": "Cn1c(=O)[nH]c(=O)c2c1nc(N1CCCCC1)n2CC(O)COc1ccccc1", "note": "(stereo unspecified)", "Potency": "inconclusive [activator, partial curve, poor fit]"},
      {"compound": "COc1ccc(/C=C2\\N=C(C)N(c3ccc4ccccc4c3)C2=O)cc1OC", "Potency": "inconclusive [activator, partial curve, poor fit]"},
      {"compound": "COc1ccc(/C=C2\\SC(=S)N(NS(=O)(=O)c3ccc(C)cc3)C2=O)c(OC)c1", "activity, positive = re-replication": "inactive: -14.9%"},
      {"compound": "COc1ccc(N(C(=O)CCl)C(C(=O)NCCc2ccccc2)c2cccs2)cc1", "note": "(stereo unspecified)", "Potency": "inconclusive [activator, full curve]"},
      {"compound": "O=S(=O)(NC1=NCCCCC1)c1ccccc1Cl", "Potency": "inconclusive [activator, full curve]"},
      {"compound": "CC(=O)NC(C)C12CC3CC(CC(CC(=O)O)(C3)C1)C2", "note": "(stereo unspecified)", "activity, positive = re-replication": "inactive: -7.38%"},
      {"compound": "CCOc1cc(NC(=O)c2cccs2)c(OCC)cc1NC(=O)CCC(=O)NCC1CCCO1", "note": "(stereo unspecified)", "Potency": "inconclusive [activator, partial curve, poor fit]"},
      {"compound": "Cc1ccc(C(=O)Nc2nc(-c3ccco3)c(-c3ccco3)s2)o1", "Potency": "inconclusive [activator, single point]"},
      {"compound": "COc1ccc(NC(=O)c2c(Cl)nc3ccccn23)cc1", "Potency": "inconclusive [activator, single point]"},
      {"compound": "CCc1ccc2c(c1)c(N=NC1=NC(=O)CS1)c(O)n2C", "Potency": "inconclusive [activator, single point]"},
      {"compound": "O=C(C1=C[C@@H](C2CC2)C[C@@H](OCc2ccc(CO)cc2)O1)N1CCN(Cc2ccccc2)CC1", "Potency": "inconclusive [activator, partial curve, poor fit]"},
      {"compound": "Cc1ccc(Nc2nc(CSc3nnc(-c4ccccc4)n3C)cs2)cc1", "Potency": "inconclusive [activator, partial curve, poor fit]"},
      {"compound": "CC(C)(C)OC(=O)N(CCc1ccccc1)Cc1cccc(OCc2cccc(NC(=O)C3CC3)c2)c1", "Potency": "inconclusive [activator, single point]"},
      {"compound": "C/[N+]([O-])=C\\c1ccc([N+](=O)[O-])o1", "activity, positive = re-replication": "inactive: 14.2%"},
      {"compound": "O=[N+]([O-])c1cc(-c2csc(NCCc3nc4cc(Cl)c(Cl)cc4n3CCCO)n2)ccc1Cl", "Potency": "inconclusive [activator, single point]"},
      {"compound": "O=C(Nc1ccon1)Nc1cccc(Cl)c1Cl", "activity, positive = re-replication": "inactive: -22.8%"},
      {"compound": "c1ccc(Oc2c3ccccc3nc3ccccc23)cc1", "Potency": "active: 18.4 µM"},
      {"compound": "COCCN(C(=O)CCc1ccccc1OC)c1nnc(-c2cccnc2)s1", "activity, positive = re-replication": "inactive: -3.98%"},
      {"compound": "N=C1C(c2nc3ccccc3[nH]2)=C(O)CN1c1ccc(CC(=O)O)cc1", "activity, positive = re-replication": "inactive: 0.504%"},
      {"compound": "N#Cc1nc(Cc2cccc3ccccc23)oc1N1CCC(C(N)=O)CC1", "Potency": "inconclusive [activator, single point]"},
      {"compound": "CCCn1c(NCc2c[nH]c3ccccc23)nc2ccccc21", "activity, positive = re-replication": "inactive: 1.88%"},
      {"compound": "CCCCCCCCCCOC(=O)Cn1c(COc2cccc(OC)c2)[n+](C)c2ccccc21", "Potency": "inconclusive [activator, single point]"},
      {"compound": "Cc1ccc(Sc2ncccc2C(=O)N(C)Cc2cccs2)c(C)c1", "activity, positive = re-replication": "inactive: 13.4%"},
      {"compound": "N#Cc1ccc(-c2cccnc2)nc1SCC(=O)Nc1sc2c(c1C#N)CCC2", "activity, positive = re-replication": "inactive: 10.5%"},
      {"compound": "O=C(NC(=S)NCc1ccc(Cl)cc1Cl)c1ccco1", "Potency": "inconclusive [activator, partial curve, poor fit]"}
    ]}
  ]
}
